These results are taken from ChEMBL document CHEMBL4888484, “Replenishing the malaria drug discovery pipeline: Screening and hit evaluation of the MMV Hit Generation Library 1 (HGL1) against asexual blood stage Plasmodium falciparum ,using a nano luciferase reporter read-out” (2022).

About 540 (0.36%) of roughly 150,000 compounds showed an effect of 50% or more. Some of the results follow.

For this experiment, the system named is Plasmodium falciparum. The experiment can be described thus: Primary screen in NF54 nanoGlo assay, in single point, at 2uM, 72h; a lower Z score goes with more inhibition. The class given is functional, Erythrocyte. Particulars: timepoint 72 hour.
One may read the % Inhibition as the drop in the measured response relative to a control, in per cent. For the molecule `CCCCCOCC(=O)Nc1nc(C2CC2)c[nH]1`, the “% Inhibition” value is listed as -18% and the Z score was found to be 3.49.
Take `O=c1ccc(C2CC2)nn1CC1CCN(C2CCCCC2O)CC1` (centres undefined): the “% Inhibition” value is -7% and the Z score is given as 1.09.
For `CC(C)(C)c1nc(CS(=O)(=O)c2ccc(F)cc2F)no1`, in that order: -18% and 3.22.
The matching figures for `Cc1cnn(CC2CCCN2C(C)C(=O)Nc2ncccn2)c1` (centres undefined): -5% and 0.65.
Take `CC1CCN(c2ccc(NS(=O)(=O)c3cccs3)cc2C(=O)O)CC1`: the “% Inhibition” value is on record as -6% and the Z score stood at 0.57.
The matching figures for `C[C@@H](Cc1cc(C(=O)N2CCC(O)(c3cccc(C(F)(F)F)c3)CC2)on1)c1ccccc1`: -9% and 1.45.
In the case of `O=C(NCc1cccnc1N1CCOCC1)c1ccc(Cl)s1`, the “% Inhibition” value is -10% and the Z score is listed as 1.71.
For `COc1cc(NC(=O)C[C@H]2CCCO2)ccc1Br`, in that order: 12% and -0.98.
For `CCn1nc(C)nc1-c1ccc(-c2ccn[nH]2)cc1`, in that order: 1% and -0.26.
For `Cc1ccc(-c2noc([C@@H]3Cc4[nH]cnc4CN3Cc3ccc(N(C)C)cc3)n2)cc1`, in that order: 1% and -0.16.
As to `COc1cc(OC)c(N(C)C(=O)[C@H]2CCCN(c3ncnc4c3nc3n4CCCCC3)C2)cc1Cl`, the “% Inhibition” value came to 0% and the Z score was -0.02.
The matching figures for `CC[C@H](C)N(Cc1c(C(C)C)nn(-c2ccccc2)c1N(C)C)C(=O)c1ccccc1F`: 13% and -1.6.
For `C[C@@H](CCN)c1cccc(C(F)(F)F)c1`, in that order: -12% and 1.22.
With `CCc1nccn1CCc1nc(C2CC2)nn1-c1cccc2cccnc12`, the “% Inhibition” value is on record as 2% and the Z score was -0.34.
The matching figures for `Cc1ncsc1CCCNCC[C@@H](C)CCCC(C)(C)O`: 0% and -0.07.
The matching figures for `CC[C@@](C)(C(=O)NC1CCCCC1)N(Cc1cccs1)C(=O)CNC(=O)c1ccccc1`: 13% and -2.
The matching figures for `CCCC(O)(CCC)CC(=O)Nc1cn(C)nc1-c1cnn(C)c1`: 7% and -0.78.
For the molecule `CCn1nncc1C(=O)N(CC1CCC1)CC1CC1`, the “% Inhibition” value stood at 13% and the Z score is recorded as -1.51.
The matching figures for `O=C(Nc1cc(F)cc(F)c1)N1CCc2ccccc2[C@@H]1c1ccc(F)cc1`: -6% and 0.96.
For `Fc1ccc(-c2cnc3n2C[C@H](CNCc2ccccc2Cl)OC3)cc1`, in that order: 1% and -0.13.
The matching figures for `CCn1ccc(CN(C)C(=O)c2ccc(COc3ccc(F)cc3F)o2)n1`: -5% and 0.57.
Consider `O=C(c1ccon1)N1CC2CCCCC2C1` (centres undefined), for which the “% Inhibition” value is given as 5% and the Z score was -0.71.
The matching figures for `COCCOCC(=O)NCc1cn2c(n1)C(=O)N(Cc1ccccc1)CC2`: 13% and -1.73.
Consider `COc1cc(CNC2CCCCCC2)ccc1OC[C@@H](O)CN1CCCCCC1`, for which the “% Inhibition” value was 1% and the Z score was -0.22.
In the case of `Cc1cc(C)c2c(c1)O[C@H](c1ccc(N(C)C)cc1)CC2=O`, the “% Inhibition” value was -5% and the Z score amounted to 0.62.
The matching figures for `Cc1cc(CNC(=O)c2cccnc2O)no1`: 7% and -0.63.
For `O=C(Cn1ccc2cc(OCc3ccccc3)ccc21)Nc1ncc[nH]1`, in that order: 3% and -0.31.
For `O=C(O)[C@H]1CN(c2cc(C(F)(F)F)ccn2)CC12CCC2`, in that order: -9% and 1.15.
For `COc1ccc2cc1Oc1cccc(c1)CO[C@H]1CN(C(=O)CCC3CCN(C)CC3)C[C@@H]1NC(=O)CN(C)C2`, the “% Inhibition” value is 0% and the Z score is 0.05.
The matching figures for `Cc1cc(NC(=O)Nc2cccc3[nH]ccc23)no1`: 5% and -0.89.
The matching figures for `Cc1ccoc1C(=O)N1CCn2c(C(N)=O)cnc2C1`: -10% and 1.
For `Cc1cc(N(C)CCc2cn[nH]c2)nc(N(C)C)n1`, in that order: -3% and 0.5.
Consider `CN1C[C@@H](CNC(=O)COc2ccccc2)N(Cc2cccnc2)[C@@H](c2ccccc2)C1=O`, for which the “% Inhibition” value is reported as -7% and the Z score is given as 0.97.
On to `OC1CCC(NC[C@H](O)COc2ccc(-c3ccccc3)cc2)CC1` (some centres undefined), for which the “% Inhibition” value stood at 0% and the Z score was found to be 0.03.
For `Cc1nn(C)c(C)c1CN(C)c1nnc2ccccn12`, in that order: -5% and 0.5.
The matching figures for `Cc1cc(Oc2ccccc2)nc(Oc2ccc(OCC(N)=O)nn2)n1`: 8% and -0.99.
The matching figures for `NC(=O)c1nsc2c(=O)n(CC(=O)Nc3ccccc3Cl)cnc12`: 5% and -0.94.
`COc1ccc(C(=O)N[C@@H]2C[C@H](COc3cccc(C)n3)[C@@H](O)[C@H]2O)cc1`: the “% Inhibition” value is reported as 3% and the Z score is on record as -0.4.
The matching figures for `C[C@H]1CN(C(=O)C(=O)Nc2ccc3oc(C4CC4)nc3c2)CC(C)(C)O1`: -10% and 1.98.
As for `CCOCCNC(=O)Nc1ccc2c(c1)COC2=O`, the “% Inhibition” value is recorded as -2% and the Z score amounted to 0.47.
For `COc1cc(C(=O)NCc2nc(-c3cccs3)n[nH]2)on1`, in that order: -23% and 2.33.
With `N#Cc1ccc(OCCN2CCC[C@H]2c2nc3ccccc3s2)cc1`, the “% Inhibition” value was -2% and the Z score is on record as 0.34.
